PubChem BioAssay AID1346428 (National Center for Advancing Translational Sciences (NCATS), 2018)
Among all 48,000 compounds or so, about 1,200 (2.5%) were called active. Another 2% or so got no clear call; they are omitted.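 How the source made its calls: active means activation of at least 60% and not above a set upper limit (about 1 call in 100 departs from these limits); inconclusive means activation of 40% to 60%, or above that upper limit; inactive means activation under 40%.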 The list shows a part of the results.

Molecular target: Probable G-protein coupled receptor 32 (Homo sapiens) (UniProt O75388)
Sequence of UniProt O75388 (O75388 whole entry, looked up): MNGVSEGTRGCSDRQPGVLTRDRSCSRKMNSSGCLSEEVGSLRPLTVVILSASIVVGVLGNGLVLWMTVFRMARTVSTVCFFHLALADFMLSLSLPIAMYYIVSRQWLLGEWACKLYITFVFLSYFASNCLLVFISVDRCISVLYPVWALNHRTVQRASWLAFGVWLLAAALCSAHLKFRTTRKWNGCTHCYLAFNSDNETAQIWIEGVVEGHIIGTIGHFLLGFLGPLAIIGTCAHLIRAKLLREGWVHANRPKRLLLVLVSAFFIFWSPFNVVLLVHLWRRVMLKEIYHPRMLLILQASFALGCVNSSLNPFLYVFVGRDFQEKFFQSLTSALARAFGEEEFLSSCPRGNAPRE
Experiment: qHTS for Agonists of Human Resolvin D1 Receptor DRV1; further: 0% is about no effect
Settings: CHO-K1 GPR32 beta-arrestin PathHunter luminescence, 90 min; at 76.9 µM; hits give high values; zero percent set by DMSO-only wells
How it was run: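 PathHunter beta-arrestin recruitment in CHO-K1 cells stably expressing ProLink-tagged GPR32. Cells were exposed to compound for 90 min at 37 C, then chemiluminescence was read after 1 h detection at ambient temperature; DMSO served as basal control.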

| SMILES | activation |
| --- | --- |
| COc1cccc(C2=CC(c3ccccc3F)n3c(nc4ccccc43)N2)c1 (centres undefined) | inactive: -26.6% |
| COc1ccc(N2CC(NC(=O)c3c(F)cccc3Cl)CC2=O)cc1OC (centres undefined) | inactive: 1.04% |
| Nc1nc2[nH]c(=O)cnc2c(=O)[nH]1 | inactive: -11.1% |
| Cc1ccccc1NC(=O)c1cnc2sc(N3CCCC3)nn2c1=O | inactive: 2.69% |
| CCC(C(=O)N1CCN(c2ccccc2)CC1)n1nc(C)c2sc3ccccc3c2c1=O (centres undefined) | inactive: -15.7% |
| CC1Cc2ccccc2N1NC(=O)c1ccc(Cl)c(S(N)(=O)=O)c1 (centres undefined) | inactive: -0.0065% |
| Cc1nc2ccccc2n1CCc1nc2c3ccccc3nc(SCc3ccc(F)cc3)n2n1 | inactive: 5.74% |
| CCCCN(C)C(=O)Cn1c(SCC(=O)Nc2ccc(C)c(C)c2)nc2ccccc21 | inactive: 10.3% |
| CCOC(=O)C1(C)C=C(Nc2ccc(C(=O)O)cc2)C(=O)N1c1ccc(C(=O)O)cc1 (centres undefined) | inactive: -4.81% |
| COc1ccc2c(c1)c1c(c(=O)n(-c3ccccc3C)c(=O)n1Cc1c(F)cccc1Cl)n2C | inactive: -2.38% |
| Cc1cccc(Nc2c3c(nc4nncn24)CCC3)c1C | inactive: -0.944% |
| COc1ccccc1N1CCN(CC(O)COc2ccc(C)cc2C(C)(C)C)CC1 (centres undefined) | inactive: 6.03% |
| CCOC(=O)c1c(C)oc2nc(C)nc(NCC3CCN(Cc4cccc(Cl)c4)CC3)c12 | inactive: 2.72% |
| CCOC(=O)C1CCCN(C(=O)Cn2nc(CC)n3c(cc4occc43)c2=O)C1 (centres undefined) | inactive: 6.98% |
| Cc1cccc(NC(=O)C2CCCN(c3nc4ccccc4s3)C2)c1C (centres undefined) | inactive: -3.47% |
| Cc1ccc(C)c(N2CCN(CCCNC(=O)Nc3ccc(Cl)cc3)CC2)c1 | inactive: 37.2% |
| Cc1ccc(NC(=O)CCNS(=O)(=O)c2ccc3c(c2)CCCC(=O)N3)cc1 | inactive: 1.1% |
| COc1cccc2cc(-c3nc(-c4ccc(C)cc4)c(C)s3)c(=O)oc12 | inactive: -9.41% |
| Cc1ccc(C(=O)Nc2ccc3nc(N4CCCCC4)cc(C)c3c2)cc1F | inactive: 30% |
| CCOc1ccccc1NC(=O)CN1C=NS(=O)(=O)c2ccccc21 | inactive: 4.8% |
| Cc1ccc(CCNC(=O)c2ccc(CS(=O)(=O)Cc3ccccc3F)o2)cc1 | inactive: 47.9% |
| O=S(=O)(Nc1ccc(Cl)cc1)c1cccc(S(=O)(=O)c2ccc(Cl)c(Cl)c2)c1 | inactive: 48.9% |
| Cc1cc(Nc2ccc(F)cc2)nc(-n2nc(C)cc2C)n1 | inactive: -17% |
| CC(=O)c1ccc(N2C(=O)N(Cc3cc(C)ccc3C)c3ccccc3S2(=O)=O)cc1 | inactive: -11.2% |
| CCOc1ccccc1NC(=O)c1c(NC(=O)C(C)Oc2ccc(Cl)cc2)sc2c1CCCCC2 (centres undefined) | inactive: -9.01% |
| Cc1ccc(NS(=O)(=O)c2ccc3c(c2)CC(C)N3C(=O)C2CCC2)cc1Cl (centres undefined) | inactive: -6.92% |
| COc1cc(Cl)c(C)cc1NC(=O)c1cc2c(Cl)nc3ccc(C)cc3c2s1 | inactive: -5.28% |

| SMILES | activation |
| --- | --- |
| Cc1cccc(-c2nc3c(c(SCc4ccccc4Cl)n2)Cc2c(CO)cnc(C)c2O3)c1 | inactive: 8.93% |
| CC(C)CCn1c(=O)c2sccc2n2c(CCCC(=O)NC(C)C)nnc12 | inactive: -6.48% |
| COc1ccc(-c2nc3cc(C)ccn3c2NC(=O)c2ccc(C)c(C)c2)cc1 | inactive: -8.53% |
| CC(C)CC1N=C2c3ccccc3N=C(SCC(=O)NCCc3ccc(Cl)cc3)N2C1=O (centres undefined) | inactive: 3.9% |
| CNC(=O)CN1C(=O)c2cccnc2Sc2ccccc21 | inactive: -4.1% |
| CCNC(=O)c1cnc2c(-c3ccccc3)c(C)nn2c1C | inactive: -1.71% |
| COc1ccc(-n2c(=O)c3c4c(sc3n(Cc3ccccc3Cl)c2=O)CCC4)c(OC)c1 | inactive: 22.3% |
| Cc1cccc(OCC(=O)Nc2ccccc2OCc2cc(=O)n3ccccc3n2)c1 | inactive: -10.4% |
| COc1cccc(CNC(=O)CN(C)S(=O)(=O)c2ccc3[nH]c4c(c3c2)CCCC4)c1 | inactive: 43.1% |
| COc1cccc(-c2cc(C(F)(F)F)nc(NCCc3ccccc3)n2)c1 | inactive: -35.6% |
| Cc1cccc(C)c1-n1ncc(C(=O)Nc2ccc3c(c2)OCO3)c1C1CCN(C(=O)OC(C)(C)C)CC1 | inactive: -22.5% |
| Cc1ccc(CN2CCc3nc(N4CCN(c5ccccc5F)CC4)ncc3C2)cc1C | inactive: -9.63% |
| CCOc1ccccc1CNC(=O)C1CCCN(c2ncnc3onc(-c4ccc(F)cc4)c23)C1 (centres undefined) | inactive: -10.1% |
| CCCCOc1ccc(CN2C(=O)C(=O)c3cc(Br)cc(C)c32)cc1OC | inactive: -26% |
| O=C(NCc1ccccc1Cl)C1CCCN(C(=O)c2cnn(-c3ccccc3)c2-n2cccc2)C1 (centres undefined) | inactive: -15.9% |
| O=C(O)Cn1c(=O)n(Cc2ccc(Br)cc2F)c(=O)c2ccc(Cl)cc21 | inactive: -22.7% |
| COc1ccccc1CCNC(=O)c1ccc2c(c1)c(C)c(C)n2Cc1ccc(Cl)cc1 | inactive: -17.6% |
| Cc1ccc2c(c1)-c1nc(-c3ccc4c(c3)NC(=O)CO4)cc(-c3ccc(F)cc3)c1CO2 | inactive: -0.435% |
| O=C(CSc1nnc(-c2ccc(O)cc2)o1)c1ccc(Br)cc1 | inactive: 30.9% |
| COc1ccccc1C(=O)Nc1c(C(=O)N(C)Cc2ccccc2)sc2nc(C)c(Cl)c(C)c12 | inactive: -27.6% |
| CCCC(CCC)C(=O)Nc1cc(-c2cn3cccnc3n2)ccc1OC | inactive: -8.84% |
| O=c1c(-c2ccc(Cl)cc2)c(C(F)(F)F)oc2c(CN3CCCCC3)c(O)ccc12 | inactive: -3.18% |
| CCc1ccc(N2C(=O)CSC23C(=O)N(Cc2ccc(C)cc2)c2ccccc23)cc1 (centres undefined) | inactive: -12.9% |
| O=C(NCN1CCOCC1)c1cnccn1 | inactive: -7.89% |
| Cc1ccccc1Nc1c(-c2ccc(Cl)s2)nc2cccc(C)n12 | active: 60.8% |
| COc1ccc(Cn2cc(C(=O)c3ccc(C)cc3)c(=O)c3cc(OC)c(OC)cc32)cc1 | inactive: 25.4% |
| COc1ccc(S(=O)(=O)c2c(C)c(NS(=O)(=O)c3ccccc3)cc(C)c2O)cc1 | inactive: -1.7% |
